This is one part of the list.
What follows are sequences tested on PF3D7_0420300 AP2 domain 1 (GST-tagged) (assay: gcPBM binding intensity (ln(normalized median fluorescence intensity)); higher = stronger DNA binding).
Summary of the method: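 An Agilent 4 × 180k array carrying primer-extended double-stranded 36-bp intergenic genomic probes and negative controls received GST-tagged P. falciparum DNA-binding domains expressed in E. coli, about 25 μg on average, for 1 h. The binding buffer contained 1× PBS, 1% milk, 0.2 mg/ml BSA, 0.5% salmon testes DNA and 0.03% Triton X-100. Binding intensity is the top Masliner-normalised natural-log median intensity across replicate spots of either probe orientation, read after Alexa488 anti-GST antibody staining and a 488 nm scan.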

Row | Sequence | gcPBM binding intensity (ln)
1 | AACAAGAAAAAAAAAAAAAAAAAAAAAAAATATTTT [XGTACX_negctrl_site428] | 9.11
2 | ATATATATATTTTTATGAGGCATAAGTAATATTTTT [TGCATGCA_negctrl_site317] | 9.05
3 | AATGTAATATAAATATGTACATAATATATATAATTA [XGTACX_site4762] | 9.36
4 | TTTTTATTTTTTTAGTATACGTACTAGGTTTGTTCT [XGTACX_site645] | 9.37
5 | ATATATTTATATATATGTACTTAAAACATTTCGATG [XGTACX_site328] | 9.01
6 | ATTTGTTTATAGGCCATAAAATATTTAATTCATTTG [CACACA_negctrl_site1824] | 9.26
7 | AGTATTATATTTGTATGTACGTAGTAATATATAAAA [XGTACX_site528] | 9.29
8 | TTTTTCATAAATATATGTACATATATTTTATATAAC [XGTACX_site3402] | 9.13
9 | ATTTATATTTATGATACACACACGTATATTCACATA [CACACA_site460] | 9.79
10 | ATATAAAAAAAAGATGAAAAAAAAAATGAAAGAAAG [CACACA_negctrl_site1266] | 9.58
11 | ATATATATAATATGATGTACATATTTATTTATATAT [XGTACX_site7333] | 9.09
12 | AATGAAATAAAATAAAGTACATATATGTAAAAGTAG [XGTACX_site5650] | 9.87
13 | TTTTTTTTTTTTTACACACACAAAATATTATCTGTA [CACACA_site5378] | 9.63
14 | AATTGAAAAGAATGAAGTACACATTTGATGATACAT [XGTACX_site5182] | 9.38
15 | AAAAATTCTTTTTCATCTATATGCAGAAAGAAAAAG [CACACA_negctrl_site1201] | 8.74
16 | TAATTTTTATGAAGAAGTACAAAATCTACTATCATA [XGTACX_site4985] | 8.78
17 | CTAAATAAAGTTAACACACACATAATATATATATGT [CACACA_site486] | 9.75
18 | CATAAACTTTTTAACACACACTTATATATATATATA [CACACA_site4747] | 9.58
19 | TACATCTGTAATGTGTGTACATATATGTATATATTT [XGTACX_site1805] | 9.38
20 | TATAATAATATATATTGTACACACAAAATGGGAAAA [XGTACX_site3911] | 9.84
21 | GAATTTATGAACTGTGCATGTAAAAAAAACAACAAA [TGCATGCA_site449] | 9.4
22 | TATATGAAGCTATAGACACACATATAAAAATATAAT [CACACA_site4850] | 9.41

Row | Sequence | gcPBM binding intensity (ln)
23 | TTTTATTTTATAAAAATAAAAAAAAAATTATTACAA [TGCATGCA_negctrl_site508] | 8.77
24 | AATTAAATAAATGTATGTACATAATAAATATGTATT [XGTACX_site4379] | 9.32
25 | TGAAAATAGTTAATTTGTACACAAAAATTAAGAAAA [XGTACX_site5794] | 9.26
26 | AAAGAAATATATACAAAAATATGAACAATTTATTAT [XGTACX_negctrl_site78] | 9.46
27 | TTTTCGATGTTGGTAGGATGTATGGTACACGTAGTA [TGCATGCA_negctrl_site61] | 9.14
28 | TATGAAAATATATATTGTACAGAATCTATAAAAAAT [XGTACX_site8030] | 9.23
29 | GAAAATTTTTGGTGTACACAAAAAAATCCAAAAAAA [CACACA_site5042] | 9.14
30 | TATGATTGTTTACGTTGTACAGCTGAATTGTTCTTA [XGTACX_site8114] | 9.34
31 | GAATGCCTTGAAAATAGTACAATTAAGAAAAAATAC [XGTACX_site8002] | 9.19
32 | AATAAAAGATCATTTATTCTTTTTTTTCTTTTTAAA [CACACA_negctrl_site1256] | 8.75
33 | TAAATAAATTTATACACACACACACCGATATATATA [CACACA_site4622] | 10.1
34 | AAAATACATAAACGTTCACACATTTAAGATAACGAG [CACACA_site5345] | 9.52
35 | TATATATATAATATATGTACATATTAATTATGTATA [XGTACX_site5366] | 9.03
36 | TGAATAAATATATATACACACATATATGTATATATT [CACACA_site1642] | 9.35
37 | GAGTTTACACTCCCTTGTACATATTCATTTTTATTC [XGTACX_site5208] | 9.66
38 | ATAATGGAGAAATAAGCATGCATTATATTATAAAAA [TGCATGCA_site325] | 9.24
39 | AATTTCTATTTTGTGAGTACATACTCCTATTATATA [XGTACX_site3210] | 9.3
40 | TAAAAGTTAATATAAACACACAAAAATTAATAAATA [CACACA_site6316] | 9.57
41 | TGAATATTTCTATATACACACATATAAATATAAATA [CACACA_site7593] | 9.31
42 | AAAAAAAAAAAAATGTAATTTTTTAATTATTTATAT [GTGCAC_negctrl_site436] | 8.79
43 | CATATATTTTTGTATAGTACTTTTTTTATTCGTTTT [XGTACX_site1860] | 9.47
44 | GATAAAATGGATGGATGTACATTATTTCCATATAAT [XGTACX_site7781] | 9.17

Row | Sequence | gcPBM binding intensity (ln)
45 | ATATTACTTCCTAAGTGTACAAGTAAGGAGAAAAAA [XGTACX_site3921] | 9.24
46 | AAAAAAAAAAAAAACACACACACAAAATAAACAAAC [CACACA_site2720] | 10.3
47 | AGATGTTTTTATATATGTACTTAAATACACAAATAT [XGTACX_site8250] | 9.19
48 | TGATAATTTTTTACATGTACAAGTTTGTTTTTGCAT [XGTACX_site125] | 9.36
49 | TTATCGGTATAATATAGTACATATAGATATATAATA [XGTACX_site1440] | 9.21
50 | TGAAAAATAAATAAATGTACATATATATATATATAC [XGTACX_site7310] | 9.18
51 | AAAAGGTTATCAATATGTACATATTTTTTTATTTTT [XGTACX_site3277] | 9.32
52 | AGAAATACAAAATAAATATAAGAAACAAAATATTTA [CACACA_negctrl_site780] | 9.42
53 | TTTTAATTAAAACACACACACACATATATATATATA [CACACA_site2291] | 10
54 | TATTTCATCATATTGTGTACTTAATTTATATAATTA [XGTACX_site5753] | 9.33
55 | ATAAAAATATGATCAACACACGATTAAATATTCATA [CACACA_site1495] | 9.46
56 | CATCTAAATTGTAGTTGTACACCTTAATCTTATTAC [XGTACX_site7547] | 9.4
57 | TATTTTATCATTTGCACACGCACACCGACATAAAAA [CACACA_site4348] | 9.51
58 | ATTTTAGAATAAATTTTTTACATTAAAAAACTATTT [CACACA_negctrl_site1414] | 8.88
59 | ACTCTCTTATATTAAACACACATATTTATAGGTATA [CACACA_site7302] | 9.44
60 | GTATCAAAAGAATACACACACACATACATATATATA [CACACA_site3796] | 10.2
61 | CATACAATAAATATGGTGCATTTTATGTAACCGTTT [GTGCAC_site9420] | 9.14
62 | TGAACATATTAAAATTGTACATATGCACAATATGTA [XGTACX_site6801] | 9.08
63 | CACATACAGACATACACACACATATAGATTAATATA [CACACA_site6399] | 9.93
64 | TATATATATATATTATGTACATATATATTAAATATG [XGTACX_site2494] | 9.03
65 | AATAAGAAATGTAAATGTACATAAAAAAAAGTATAT [XGTACX_site3573] | 9.52
66 | TTAGGGTTTTATAAATGTACTTATTTATACATCCTC [XGTACX_site5769] | 9.14

Row | Sequence | gcPBM binding intensity (ln)
67 | TAAACATTTTTGCACGCACACAAAAAAAAAATAAAA [CACACA_site167] | 9.28
68 | ATTTTTTAACATATCATACACACAACCACTTTTTAT [CACACA_site1961] | 9.79
69 | ATTAAATGCAGTTCGGTGCATTAAGGTTATGATGAA [GTGCAC_site9883] | 9.12
70 | ATTTATTCATTTGGGTGTACTATTTAAAAAAAACAA [XGTACX_site498] | 9.18
71 | TATTTATATTTTAACACACACATATTTATATTTATA [CACACA_site7324] | 9.61
72 | TATATTTTTTAAACCACACACAATATAGAGTATAAT [CACACA_site4510] | 9.66
73 | TATATATAATTTTATACATGCACATATTATATATAT [TGCATGCA_site1036] | 9.26
74 | TATAAATAAAGACACACACACATATAAATAAATATA [CACACA_site7155] | 10.1
75 | TTTATATACTATTCAAAGTGATAAATAATATATGAA [TGCATGCA_negctrl_site352] | 8.86
76 | AAAAAAAAAAAACATACACACAATAAAATAGGGGTA [CACACA_site2399] | 9.99
77 | ATTTATTTATTAAGATGTACTTATTAAAAATAATAA [XGTACX_site7392] | 8.76
78 | CCATTAAATACATACACACCCACACCCAAAAAAAAA [CACACA_site4633] | 9.81
79 | AAAAAAAAAAATATAACACACAAAAAATTGTATCGA [CACACA_site1144] | 9.44
80 | ATATAGTAAAATTATACACACATGAATTTTCCCATA [CACACA_site3113] | 9.44
81 | ACAAAATTTACAAAATGTACATATTGTAGATATTGT [XGTACX_site7618] | 9.06
82 | ATTATATATACACGCACACACACTTATATATATATA [CACACA_site9093] | 10
83 | CATTCATTTATTAATTGTACTTTTAAGGTTAAATAA [XGTACX_site5838] | 8.85
84 | TAAAAATATATACATACATGCATACATATATATGTA [TGCATGCA_site774] | 9.14
85 | CAAGCCCTTCTGCTTACACACAGTAATTATTGTGTA [CACACA_site2953] | 9.49
86 | TAGGAAAAGAAAAGCACACACATAAATAAATATATA [CACACA_site504] | 9.91
87 | TAATTTATTATATTTTGTACGTAAAATTATTATTGT [XGTACX_site8155] | 9.26
88 | AATATTTATTTTACATGTACTTATTTTTCTTTTAAC [XGTACX_site3631] | 9.52

Source: the supplement of paper PMC11417369
